# Reference: PubChem BioAssay (NCATS)
# The inconclusive results got no clear call from the source; some entries with a clear call stand among them for comparison. No potency is given beside an inconclusive call; the fits are too rough. Calls of active or inactive are those of the source. Calls follow the shape of the dose curve; as a rule, active = well fitted inhibition curve with a large enough effect; inconclusive = small, poorly fitted or top-dose-only effect; inactive = flat fitted curve, though single readings scatter.
# Target: Ubiquitin carboxyl-terminal hydrolase 1 (Homo sapiens) (UniProt O94782)
# Experiment: Inhibitors of USP1/UAF1: Pilot qHTS (AID 504865);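 also: rhodamine fluorescence freed from ubiquitin-rhodamine substrate followed over time; nearly all actives have a fitted effect of over 35% in size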
# Settings: purified USP1/UAF1, Ub-rhodamine cleavage fluorescence; series mostly up to 114 µM
# Summary of the method: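 Kinetic fluorescence assay: 1nM USP1/UAF1, 15 min compound preincubation, then 150nM Ub-Rho; 480/540 nm.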
# Potency is read from the fitted curve at half-maximal effect; tags tell the direction and shape of the fitted curve.
# UniProt O94782, sequence (O94782 whole entry, looked up): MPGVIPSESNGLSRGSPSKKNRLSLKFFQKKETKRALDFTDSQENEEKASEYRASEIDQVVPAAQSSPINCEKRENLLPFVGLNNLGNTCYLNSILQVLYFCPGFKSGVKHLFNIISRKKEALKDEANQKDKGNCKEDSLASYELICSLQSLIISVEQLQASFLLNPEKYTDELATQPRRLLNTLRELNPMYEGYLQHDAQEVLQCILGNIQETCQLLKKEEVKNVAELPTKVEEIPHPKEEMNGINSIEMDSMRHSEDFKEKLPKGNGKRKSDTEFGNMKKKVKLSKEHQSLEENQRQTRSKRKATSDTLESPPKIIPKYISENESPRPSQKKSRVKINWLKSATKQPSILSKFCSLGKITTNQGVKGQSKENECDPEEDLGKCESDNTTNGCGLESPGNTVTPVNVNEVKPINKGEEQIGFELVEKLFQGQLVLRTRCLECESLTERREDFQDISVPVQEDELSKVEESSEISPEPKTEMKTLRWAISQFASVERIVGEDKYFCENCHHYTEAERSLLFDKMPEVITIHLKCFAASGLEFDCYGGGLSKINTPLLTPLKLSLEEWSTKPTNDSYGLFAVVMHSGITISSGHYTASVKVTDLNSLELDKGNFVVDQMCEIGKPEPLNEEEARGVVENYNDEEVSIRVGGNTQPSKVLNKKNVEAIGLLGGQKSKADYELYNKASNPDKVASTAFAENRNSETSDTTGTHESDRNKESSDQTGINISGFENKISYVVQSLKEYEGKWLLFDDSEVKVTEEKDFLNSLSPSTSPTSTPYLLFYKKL
row,SMILES,Potency
1,CC(=O)OC1C[C@@]2(C)C(c3ccoc3)OC(=O)C3O[C@@]32[C@]2(C)C(OC(C)=O)CC3C(C)(C)C(OC(C)=O)CC(OC(C)=O)[C@@]3(C)C12 (stereo partly specified),inactive
2,COc1cc2c(C)c3c4c(cc(OC)c(OC)c4c2cc1OC)CCN3C,active: 25.1 µM
3,CC(=O)OC1CC(OC(C)=O)[C@]2(C)C(CC(O)[C@]3(C)C2CC[C@@]2(C)C(c4ccoc4)OC(=O)C4O[C@]432)C1(C)C (stereo partly specified),"inconclusive [inhibitor, partial curve, poor fit]"
4,O=C(/C=C/c1ccccc1)c1ccc(O)cc1O,"inconclusive [inhibitor, partial curve, poor fit]"
5,C=C[C@](C)(O)CCC1C(=C)CC(O)C2C(C)(C)CCCC12C (stereo partly specified),"inconclusive [inhibitor, partial curve]"
6,C=CC(C1=CC(=O)C(OC)=CC1=O)c1ccc(O)cc1 (stereo unspecified),"inconclusive [inhibitor, full curve, poor fit]"
7,CO[C@@H]1C=CO[C@]2(C)Oc3c(C)c(O)c4c(O)c(c(C=NN5CCN(C)CC5)c(O)c4c3C2=O)NC(=O)C(C)=CC=C[C@H](C)[C@H](O)[C@H](C)[C@H](O)[C@H](C)[C@H](OC(C)=O)[C@H]1C,"inconclusive [inhibitor, partial curve, poor fit]"
8,CCCCCCCCCCCCCCC(C(=O)OC)C(O)(CC(=O)OC)C(=O)OC (stereo unspecified),"inconclusive [inhibitor, full curve]"
9,O=C1C(c2ccccn2)=[N+]([O-])c2ccccc21,"inconclusive [inhibitor, partial curve, poor fit]"
10,O=C1C=C(O)c2ccccc2C1=O,active: 50.1 µM
11,Cc1cccc(CNc2ncncc2-c2cccnc2)c1,inactive
12,CCC(C)C(=O)O[C@H]1C[C@@H](C)C=C2C=C[C@H](C)[C@H](CC[C@@H]3C[C@@H](O)CC(=O)O3)C21 (stereo partly specified),"inconclusive [inhibitor, partial curve]"
13,CCCCCC(=O)O[C@@]1(C(C)=O)CCC2C3CCC4=CC(=O)CC[C@@]4(C)C3CC[C@]21C (stereo partly specified),"inconclusive [inhibitor, partial curve, poor fit]"
14,COCCNc1ncncc1-c1ccccc1OC,inactive
15,COc1cc(O)cc(/C=C/c2ccccc2)c1,"inconclusive [inhibitor, partial curve]"
16,COc1ccc(/C=C/C(=O)c2ccc(O)cc2O)cc1,"inconclusive [inhibitor, partial curve, poor fit]"
17,C=C1CC23C[C@H]4[C@@H]5[C@@]6(C)C[C@H](OC(=O)c7ccccc7)[C@@H](OC(C)=O)[C@]57[C@@H]2[C@@H](OC(C)=O)[C@H]1[C@@H](O)[C@H]3[C@H]7N4C6,"inconclusive [inhibitor, partial curve, poor fit]"
18,COc1cc2c(cc1O)C(Cc1ccc(O)cc1)[N+](C)(C)CC2 (stereo unspecified),inactive
19,COc1ccc2nccc(C(=O)O)c2c1,"inconclusive [inhibitor, single point]"
20,Cc1cc(=O)cc2oc3cc(N)c(-c4c(C)cc(O)cc4O)c(C)c3nc1-2,"inconclusive [inhibitor, partial curve, poor fit]"
21,CC(=O)Nc1ccc(-c2nc3ccc(Cl)cc3[nH]2)cc1,"inconclusive [inhibitor, partial curve, poor fit]"
22,CC(C)=CC1C(CO)C1(C)C (stereo unspecified),"inconclusive [inhibitor, partial curve, poor fit]"
23,C=CC1=C(C)/C(=C/c2[nH]c(Cc3[nH]c(/C=C4\NC(=O)C(C)=C4C=C)c(C)c3CCC(=O)O)c(CCC(=O)O)c2C)NC1=O,"inconclusive [inhibitor, partial curve]"
24,CCCCC(=O)O[C@@]1(C(=O)CO)C(C)CC2C3CCC4=CC(=O)C=C[C@@]4(C)[C@]3(F)C(O)C[C@]21C (stereo partly specified),"inconclusive [inhibitor, partial curve, poor fit]"
25,CC(C)CCCC(C)C1CCC2C3CC=C4CC(=O)CC[C@@]4(C)C3CC[C@@]12C (stereo partly specified),"inconclusive [inhibitor, partial curve]"
26,CCCCN1CCCCC1C(=O)Nc1c(C)cccc1C (stereo unspecified),inactive
